Among the data in PubChem BioAssay AID488969 (Vanderbilt High Throughput Screening Facility, 2010) are z-score values, retold here.

Structures are written as SMILES. Over roughly 110,000 compounds, “z-score” has its median near -0.1; the highest 2% begin near 2. This is one part of the list.

The assay has as its target Metabotropic glutamate receptor 8 (Rattus norvegicus) (UniProt P70579). Briefly: rat mGluR8 modulators via GIRK flux, primary screen, cell-based, thallium flux, HTS (AID 488969). Particulars: HEK293 rat mGluR8, GIRK (G protein-gated inwardly rectifying potassium channel) thallium flux, FluoZin2; at 10 µM; stronger effect = higher value.
Chain of UniProt P70579 (P70579 whole entry, looked up): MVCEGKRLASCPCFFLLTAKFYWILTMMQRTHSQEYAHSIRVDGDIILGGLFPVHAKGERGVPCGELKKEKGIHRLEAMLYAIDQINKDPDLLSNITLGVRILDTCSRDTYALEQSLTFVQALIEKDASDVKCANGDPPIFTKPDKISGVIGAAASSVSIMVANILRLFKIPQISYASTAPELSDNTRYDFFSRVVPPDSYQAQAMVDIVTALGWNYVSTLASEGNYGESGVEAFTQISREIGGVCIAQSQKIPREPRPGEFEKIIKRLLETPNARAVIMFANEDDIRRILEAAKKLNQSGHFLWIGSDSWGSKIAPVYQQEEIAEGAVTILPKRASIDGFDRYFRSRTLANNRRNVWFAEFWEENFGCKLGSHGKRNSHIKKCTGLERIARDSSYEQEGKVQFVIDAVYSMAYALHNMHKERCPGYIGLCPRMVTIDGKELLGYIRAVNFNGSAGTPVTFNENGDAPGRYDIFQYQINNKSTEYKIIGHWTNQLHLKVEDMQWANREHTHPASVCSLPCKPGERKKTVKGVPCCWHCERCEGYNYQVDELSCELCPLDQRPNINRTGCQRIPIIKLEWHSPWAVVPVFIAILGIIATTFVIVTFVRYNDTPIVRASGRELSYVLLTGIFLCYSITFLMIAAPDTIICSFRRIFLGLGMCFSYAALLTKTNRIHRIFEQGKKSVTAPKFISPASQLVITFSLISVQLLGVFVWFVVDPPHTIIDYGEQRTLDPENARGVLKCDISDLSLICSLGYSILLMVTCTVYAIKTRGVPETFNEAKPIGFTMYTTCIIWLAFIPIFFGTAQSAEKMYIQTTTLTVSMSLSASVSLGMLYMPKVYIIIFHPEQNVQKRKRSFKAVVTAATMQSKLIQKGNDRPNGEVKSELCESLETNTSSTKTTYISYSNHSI
Turning to `O=C1NC(=O)N(c2ccc3c(c2)OCO3)C(=O)/C1=C\c1ccc(N2CCCCC2)o1`, the z-score was -0.906.
Molecule `CCN1CCN(Cc2cc(OC)c(OC)cc2[N+](=O)[O-])CC1` returned a z-score of -0.494.
For the molecule `O=C(C1CCCO1)N1CCC2(CC1)OCCO2` (stereo not given), the z-score was -0.26.
`Cc1nc2cc(F)ccc2n1C1CCN(Cc2nnnn2CCc2ccccc2)CC1` returned a z-score of 0.0251.
The figure for `O=c1[nH]c(=S)n(-c2ccccc2F)c(O)c1C=NCc1ccco1` is 0.14.
For the molecule `Cc1ccsc1-c1nc(CSCC(=O)N2CCC3(CC2)OCCO3)c(C)o1`, the z-score is -0.00292.
With `Cc1cc(S(=O)(=O)NCc2ccccc2)ccc1OCC(=O)N1CCN(C)CC1`, the z-score was determined as 0.0532.
Molecule `Cc1cc(C)cc(N2C(=O)NC(=O)/C(=C/c3cccn3-c3ccc(Cl)cc3)C2=O)c1` had a z-score of -0.118.
Next, `CC12CN3CCN(C1)CC(C)(C3)C2=NO`: -0.429.
Molecule `O=C(CNC(=O)c1ccccc1)Nc1ccc(Br)cc1C(=O)c1ccccc1` displayed a z-score of -1.27.
`CCn1c(O)c(/C(C)=N/N2CCCCC2c2cccnc2)c(=O)[nH]c1=S` (stereo not given) returned a z-score of -0.0159.
`CCNC(=O)NC(=O)C(C)OC(=O)c1c(C)nn(Cc2ccccc2Cl)c1Cl` (stereo not given) yielded a z-score of -0.396.
Consider `O=S(=O)(c1ccc(Cl)cc1)N1CC1c1ccccc1` (stereo not given), for which the z-score is -0.166.
On to `Cc1ccc(C(c2nnnn2Cc2ccccc2)N2CC=C(c3ccc(F)cc3)CC2)cc1` (stereo not given), for which the z-score turned out to be 0.127.
Take `Oc1ccc(/C=N/NP(=S)(c2ccccc2)c2ccccc2)cc1`: the z-score worked out at 1.52.
The molecule `C=CCN1C(=O)/C(=C/c2ccc3c(c2)CCCN3CCC)C(=O)NC1=S` yielded a z-score of -0.695.
Take `O=c1[nH]c(O)c(/C=C2\C=NN=C2c2ccccc2)c(=O)[nH]1`: the z-score was -0.00409.
Take `O=P(/C(=N/O)N1CCOCC1)(N1CCOCC1)N1CCOCC1`: the z-score was -0.127.
`O=C(OCC(=O)c1ccc([N+](=O)[O-])cc1)/C(=C/c1ccc(Cl)cc1)NC(=O)c1ccccc1`: the z-score was 0.891.
On to `CCN1CCN(Cc2ccc(OC(F)(F)F)cc2)CC1`, for which the z-score amounted to 0.803.
For `Cc1ccc2c(c1)N(N=O)CCC2`, the z-score was 0.189.
Next, `O=C(CF)NC(Nc1cccc2cccnc12)C(Cl)(Cl)Cl` (stereo not given): -0.523.
Turning to `CCC(=NCc1ccco1)c1c(O)n(C2CCCCC2)c(=O)[nH]c1=O`, the z-score was -0.722.
Consider `CN(C)CC1CSCCC1(O)c1ccc(C(F)(F)F)cc1` (stereo not given), for which the z-score was -0.151.
The figure for `N#CCP(=S)(c1ccccc1)c1ccccc1` is -0.272; for `CCOC(=O)C(O)(c1cn(C)c2ccccc12)C(F)(F)F` (stereo not given) it is -0.0638; for `Cc1cccc(-c2nc3ccccc3c(=O)n2-n2cccc2)c1` it is -1.42.
As for `COc1cc(/C=N/n2cnnc2)ccc1OC(=O)N(C)C`, the z-score was 0.106.
As for `Cc1ccc(-c2nc3ccccc3c(=O)n2-c2cc(C)ccn2)cc1`, the z-score was -0.23.
The molecule `CCCCCSc1cc(O)c(C(CNC)C(C)C)cc1OC` (stereo not given) registered a z-score of 0.00978.
Turning to `CN1C(=O)C(C2c3ccccc3C(=O)N2Cc2ccccc2)C(=O)N(C)C1=O` (stereo not given), the z-score turned out to be 0.585.
Next, `CCc1cccc2c(C#N)cn(CC(=O)N3CCOCC3)c12`: 0.394; `CCn1c(C)c(C(=O)O)c2cc(OC)ccc21`: -0.484; `COc1ccc(C2NCc3ccccc3-n3cccc32)cc1` (stereo not given): 2.1.
Next, `CC1OC(NCCc2ccccc2)C(O)C(O)C1O` (stereo not given): 0.00686; `CCCCC12CNCC(C)(CNC1)C2=O`: 0.332; `CCN1c2nc3c(C)cccn3c(=O)c2CC2(C(=O)N(C)C(=O)N(C)C2=O)C1C` (stereo not given): 0.294.
`CC(Cc1ccccc1)NC(=O)Cc1ccc(N(C)C)cc1` (stereo not given) registered a z-score of -0.255.
Molecule `CN1C(=O)C(=Cc2ccccc2Oc2ccc(Cl)c(F)c2)C(=O)N(C)C1=O` came in with a z-score of -0.0902.
`CC(=O)c1ccc(OC(NC(=O)c2ccco2)C(Cl)(Cl)Cl)cc1` (stereo not given): the z-score is -0.156.
`COc1ccccc1N1CCN(C(CNC(=O)Oc2ccccc2)c2cccnc2)CC1` (stereo not given) showed a z-score of 0.0633.
As to `CC1CCC(C(C)C)C(OP(N)(=O)c2ccccc2)C1` (stereo not given), the z-score was -0.413.
Take `O=C1/C(=C\c2ccc3c(c2)OCO3)N2CCC1CC2`: the z-score is -0.1.
`Cc1ccc(C(=O)Nc2ccc(Cl)cc2C(=O)c2ccccc2)cc1` yielded a z-score of -0.334.
`O=P(NS(=O)(=O)c1ccc(Br)cc1)(Oc1ccccc1)Oc1ccccc1` yielded a z-score of 0.284.
Next, `C=CCN1C(=O)C2(C(C(=O)OCC)=C(N)Oc3c2c(=O)oc2ccccc32)c2ccccc21` (stereo not given): -0.965.
Next, `Cc1ccc(N(C)C(=O)Oc2cccc3cccnc23)cc1`: -0.206.
Take `COc1ccccc1N=Cc1c(O)n(C)c(=O)n(C)c1=O`: the z-score was -0.293.
Next, `Cc1nc2c(-c3ccccc3)c(C)nn2c(C)c1CCC(=O)N1CCC2(CC1)OCCO2`: -0.584; `O=C1NC(=S)NC(=O)C1C/C=C/c1ccccc1`: 0.496; `Cc1cccc(N2C(=O)/C(=C/c3ccc(CN(CCC#N)S(C)(=O)=O)o3)C(=O)NC2=S)c1`: -0.361.
On to `O=C(CN1CCN(Cc2ccc(Cl)cc2)C1=O)N1CCC2(CC1)OCCO2`, for which the z-score came out at 0.275.
`C=Cn1ccnc1P(=S)(c1nccn1C=C)C1CCCCC1` had a z-score of -0.0699.
Molecule `CN(C)CC1CSCCC1(O)c1cccc(Cl)c1` (stereo not given) returned a z-score of 0.741.
Regarding `O=c1c2ccccc2nc(-c2ccc(-c3ccccc3)cc2)n1-c1ccncc1`, the z-score is 0.336.
`CC(=O)N1CN2CN(C(C)=O)CC(C(=O)c3ccc(Br)cc3)(C2)C1` registered a z-score of -0.181.
The molecule `CCC1(c2ccccc2)C(=O)N(COC)C(=O)N(COC)C1=O` displayed a z-score of 0.0401.
Consider `CC(C)(C)c1ccc(S(=O)(=O)N2CC3CC(C2)c2cccc(=O)n2C3)cc1` (stereo not given), for which the z-score was -0.293.
Take `COc1ccc(-n2c(O)c(C=NCCCn3ccnc3)c(=O)[nH]c2=O)cc1`: the z-score is 0.21.
The figure for `O=C(c1ccc2c(=O)n(Cc3ccc4c(c3)OCO4)c(=S)[nH]c2c1)N1CCC2(CC1)OCCO2` is -0.113; for `Cc1ccc2c(c1)CC1(CN2C)C(=O)NC(=O)N(c2cc(C)ccc2C)C1=O` (stereo not given) it is -0.3.
The molecule `O=c1[nH]c2c(c(=O)n1C1CCCCC1)CCC2` yielded a z-score of 0.316.
Turning to `Cc1cc(OCC(=O)OC(C)C)c2c3c(c(=O)oc2c1)CCCC3`, the z-score was -0.538.
The figure for `CCCCCSc1cc(OC)c(CCN(C)C)cc1OC` is 1.47; for `Cc1cc(Oc2ccc(C(F)(F)F)cc2[N+](=O)[O-])c2c3c(c(=O)oc2c1)CCCC3` it is -0.256.
On to `CC(C)CC1C(C#N)=C(N)Oc2c1c(=O)oc1ccccc21` (stereo not given), for which the z-score is -0.0513.
As for `Cn1c(=O)c2c(nc(N/N=C/c3c(O)n(-c4ccccc4)c(=S)[nH]c3=O)n2C)n(C)c1=O`, the z-score was -0.117.
`CC1(C)NCCN2C(=O)CSC21` (stereo not given): the z-score was 0.0385.
In the case of `O=C(CN1CCOCC1)c1cccc2ccccc12`, the z-score was -0.17.
Next, `CCOc1ccc(NC(=O)c2ccc(NC(=O)COC(=O)Cc3ccccc3)cc2)cc1`: -0.0952.
